Data from PubChem BioAssay AID720542 (National Center for Advancing Translational Sciences (NCATS), 2013).
In all, about 360,000 compounds went through this assay and about 740 (0.21%) were called active. Inconclusive results, whose numbers are uncertain, are shown with a selection of clear calls. The call rests on the fitted dose curve; in most records, active means well fitted inhibition curve with a large enough effect; inconclusive means small, poorly fitted or top-dose-only effect; inactive means no such curve, though single readings can be large or run the other way. No potency is given beside an inconclusive call; the fits are too rough.

Tested on: Plasmodium falciparum AMA1 (3D7) - RON2 peptide interaction
Assay: qHTS for Inhibitors of AMA1-RON; Towards Development of Antimalarial Drug Lead: Primary Screen; further: nearly all actives have a fitted effect of over 45% in size;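 on activity change, negative = inhibition: 0% = vehicle wells and -100% = peptide control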
Conditions: AlphaScreen AMA1-biotinylated RON2 peptide binding; activity change, negative = inhibition: at 58.2 µM (top of the series) unless noted
In short: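 AMA1 (3D7) with his tag at 25 nM final met compounds first, then biotinylated RON2 peptide at 25 nM; detection used donor plus acceptor beads, 10 µg/mL apiece, read by AlphaScreen after 30 min at room temperature.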
Potency means the concentration at half of the fitted maximal effect; tags describe the fitted curve by direction and shape.

**Q.** With `Cn1nnc2sc3c(c2c1=O)CCCC3` as the compound, how does the Potency read?
**A.** inconclusive [inhibitor, single point]

**Q.** With `Oc1ccccc1NCC(O)Cn1ccc2ccccc21` (configuration not stated) as the compound, how does the Potency read?
**A.** inconclusive [inhibitor, single point]

**Q.** Which Potency does the source give for `O=C(O)Cn1c(SCCOc2ccc(Cl)cc2)nc2ccccc21` here?
**A.** inconclusive [inhibitor, full curve, poor fit]

**Q.** Which activity change, negative = inhibition does the source give for `CCOc1cc(CNc2ccc(Br)cc2)cc(Br)c1OCC(=O)NC(C)(C)C` here?
**A.** inconclusive: -2.93% [inhibitor]

**Q.** Which Potency does the source give for `O=[N+]([O-])c1ccc2c(c1)-c1ccccc1C2O` (configuration not stated) here?
**A.** inconclusive [inhibitor, partial curve]

**Q.** With `COc1ccccc1NC(=O)CSc1nnc(-c2ccco2)n1N` as the compound, how does the Potency read?
**A.** inactive

**Q.** With `CC(C)(C)C1CCc2c(sc(NC(=O)c3ccncc3)c2C(N)=O)C1` (configuration not stated) as the compound, how does the Potency read?
**A.** inactive

**Q.** How did the Potency turn out when `c1ccc2c(CN3CCSCC3)cccc2c1` was run?
**A.** inconclusive [inhibitor, single point]

**Q.** Which Potency does the source give for `Cc1cc(C)c2c(=N)c3ccccc3n(CCCCCCCCn3c4ccccc4c(=N)c4c(C)cc(C)nc43)c2n1` here?
**A.** inconclusive [inhibitor, partial curve]

**Q.** `O=C(N/N=C\c1ccc(OC(=O)c2cccs2)cc1)c1ccc(Cl)cc1` was tested. Which Potency did it give?
**A.** inactive

**Q.** `O=C(c1ccccc1-c1ncc[nH]1)N1CCc2c([nH]c3ccccc23)C1c1ccccn1` (configuration not stated) was tested. Which Potency did it give?
**A.** inconclusive [inhibitor, partial curve]

**Q.** How did the Potency turn out when `CC(C(=O)N1CCCc2ccccc21)N1CCN(c2ccccn2)CC1` (configuration not stated) was run?
**A.** inconclusive [inhibitor, single point]

**Q.** Which Potency does the source give for `O=[N+]([O-])c1cccc(NC(=S)N2CCc3ccccc32)c1` here?
**A.** inactive

**Q.** With `C#CCn1c2ccccc2c(=O)n1CCOc1ccccc1OC` as the compound, how does the Potency read?
**A.** inactive

**Q.** How did the Potency turn out when `CSc1ccc(C=NNc2ccc(S(=O)(=O)Nc3ccccc3C(=O)O)cc2[N+](=O)[O-])cc1` was run?
**A.** inconclusive [inhibitor, single point]

**Q.** Which Potency does the source give for `Nc1c(C(=O)c2ccccc2)oc2ccccc12` here?
**A.** inconclusive [inhibitor, full curve, poor fit]

**Q.** With `O=C(COc1cccc(Cl)c1)Nc1nc(-c2ccc(S(=O)(=O)N3CCOCC3)cc2)cs1` as the compound, how does the Potency read?
**A.** inactive

**Q.** With `COc1cc2ccccc2cc1C(=O)N(CCN(C)C)c1nc2c(F)cccc2s1` as the compound, how does the Potency read?
**A.** inconclusive [inhibitor, single point]

**Q.** How did the Potency turn out when `O=C(CN1CCOCC1)Nc1ccc(C2CCCCC2)cc1` was run?
**A.** inactive

**Q.** Which Potency does the source give for `CCOC(=O)c1c(NC(=O)C(C)N2CCN(C(=O)c3ccco3)CC2)sc2c1CCCC2` (configuration not stated) here?
**A.** inconclusive [inhibitor, single point]

**Q.** For `Oc1ccc2ccccc2c1C=Nc1cc(C(F)(F)F)ccc1N1CCCC1`, which Potency is on record?
**A.** inconclusive [inhibitor, single point]

**Q.** Which Potency does the source give for `O=[N+]([O-])c1cc(-n2cccc2)ccc1N1CCOCC1` here?
**A.** inconclusive [inhibitor, single point]

**Q.** For `COc1ccc(C(=O)NCC(=O)N=Nc2c(O)n(Cc3ccccc3)c3ccccc23)cc1OC`, which Potency is on record?
**A.** inconclusive [inhibitor, partial curve]

**Q.** For `CC1CC(C)CN(c2nc3c(c(=O)n(C)c(=O)n3C)n2CCSc2nc3ccccc3o2)C1` (configuration not stated), which Potency is on record?
**A.** inactive

**Q.** For `C#Cc1cccc(Nc2nc(NCCOC)nc3ccsc23)c1`, which Potency is on record?
**A.** inactive

**Q.** `COc1cc(Cl)ccc1NC(=S)N(CCCN1CCOCC1)Cc1cn(C)c2ccccc12` was tested. Which Potency did it give?
**A.** inconclusive [inhibitor, partial curve]

**Q.** With `Cc1ccc(C(=O)NCC(=O)N2CCCCCC2)cc1` as the compound, how does the Potency read?
**A.** inactive

**Q.** With `CCOc1ccccc1C(=O)N/N=C/c1cccc2cccnc12` as the compound, how does the Potency read?
**A.** inconclusive [inhibitor, single point]

**Q.** Which Potency does the source give for `COc1ccc(CNc2ncc(-c3ccc(F)cc3)n2C)cc1OC` here?
**A.** inconclusive [inhibitor, single point]

**Q.** `COc1ccccc1CNC(=O)c1oc2ccc(S(=O)(=O)N3CCCC3)cc2c1C` was tested. Which Potency did it give?
**A.** inactive

**Q.** `Clc1cccc(OCCN2CCN(CCOc3cccc(Cl)c3)CC2)c1` was tested. Which Potency did it give?
**A.** active: 17.8 µM

**Q.** With `O=C(NC1CCCC1)C(c1ccccn1)N(C(=O)c1csnn1)c1ccccc1Cl` (configuration not stated) as the compound, how does the Potency read?
**A.** inactive

**Q.** With `CCn1ccnc1CN(C)Cc1c(C(=O)N2C[C@@H](C)O[C@@H](C)C2)nc2ccc(Cl)cn12` as the compound, how does the Potency read?
**A.** inactive

**Q.** `Cc1nn(C)c(Cl)c1C(=O)NCC(=O)Nc1ccc(C(C)C)cc1` was tested. Which Potency did it give?
**A.** inactive

**Q.** For `Nc1c(C(=O)CCC(=O)O)oc2ccc(Cl)cc12`, which Potency is on record?
**A.** inactive

**Q.** With `COc1cc(CNCCc2ccc3c(c2)OCO3)cc(OC)c1OC` as the compound, how does the Potency read?
**A.** inconclusive [inhibitor, partial curve, poor fit]

**Q.** Which Potency does the source give for `O=C(NNC(=S)NCc1ccco1)c1ccc(Cl)s1` here?
**A.** inactive

**Q.** With `COc1ccc(C2(c3ccc(OC)cc3)NC(=O)N(CC(=O)Nc3ccc(N4CCOCC4)cc3)C2=O)cc1` as the compound, how does the Potency read?
**A.** inconclusive [inhibitor, partial curve]

**Q.** How did the Potency turn out when `NC(=O)Cn1cc(C(=O)c2ccccc2)c2ccccc21` was run?
**A.** inconclusive [inhibitor, partial curve]

**Q.** How did the Potency turn out when `COc1ccc(NC(=O)CN(C)C(C)C(=O)N2CCCCC2)cc1` (configuration not stated) was run?
**A.** inconclusive [inhibitor, partial curve]

**Q.** `COc1cc(/C=N/NC(=O)c2cc(O)cc(O)c2)ccc1OC(=O)c1ccccc1` was tested. Which Potency did it give?
**A.** inconclusive [inhibitor, partial curve]

**Q.** Which Potency does the source give for `COc1ccccc1C(=O)NCCC(=O)Nc1ccc(S(=O)(=O)Nc2ncccn2)cc1` here?
**A.** inactive

**Q.** Which Potency does the source give for `CC1(C)CC(=O)C2=C(C1)OC(N)=C(C#N)C21C(=O)N(CN2CCOCC2)c2ccccc21` (configuration not stated) here?
**A.** inactive

**Q.** `CCOC(=O)NC1(NC2CCCCC2)Oc2ccccc2O1` was tested. Which Potency did it give?
**A.** inconclusive [inhibitor, single point]

**Q.** With `Cc1cc(/C=C2/C(=O)NC(=O)N(Cc3ccco3)C2=O)c(C)n1-c1ccccc1` as the compound, how does the Potency read?
**A.** inconclusive [inhibitor, single point]

**Q.** `O=C(NC1CCCCCCC1)NC1CCCCC1` was tested. Which Potency did it give?
**A.** inactive

**Q.** For `S=C(Nc1cc(Cl)cc(Cl)c1)NC1CCN(Cc2ccccc2)CC1`, which Potency is on record?
**A.** inconclusive [inhibitor, single point]
